From article PMC7819943, “Rice protein-binding microarrays: a tool to detect cis-acting elements near promoter regions in rice”
The list shows a part of the results.

These sequences were tested against T1, OsWOX13 (Oryza sativa, UniProt Q5QMM3 1-267) (assay: protein-binding microarray (RPBM); PBS, 2% BSA, 51.3 ng/ul salmon testes DNA, 50 uM zinc acetate, 200 nM TF, 25 C, 1 h; high values mean tight binding). Details: protein: recombinant; tags: N-terminal polyhistidine and DsRed monomer fusion (pET32a); label: CyDye5-dUTP incorporated in the synthesized complementary strand; 3' TTTTT single-stranded linker to array surface; dsDNA, one strand shown.
T1 sequence: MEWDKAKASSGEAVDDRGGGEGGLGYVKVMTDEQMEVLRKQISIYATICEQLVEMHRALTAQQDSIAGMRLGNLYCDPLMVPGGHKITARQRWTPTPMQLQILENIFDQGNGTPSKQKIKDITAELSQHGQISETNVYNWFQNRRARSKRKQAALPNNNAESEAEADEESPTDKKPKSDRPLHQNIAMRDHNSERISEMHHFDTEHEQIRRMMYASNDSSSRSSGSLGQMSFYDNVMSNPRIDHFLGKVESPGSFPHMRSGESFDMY
In short: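 Transcription factors were made in E. coli BL21-CodonPlus as N-terminal fusions to a polyhistidine tag and DsRed, then purified on Ni–NTA. After primer extension with Cy5-dUTP and blocking with 2% BSA, a custom Agilent array was exposed for 1 h at 25 °C to 200 nM protein in PBS, 2% BSA, salmon testes DNA and 50 µM zinc acetate. Washed arrays were scanned on an Axon 4000B, and the binding signal is per-feature fluorescence intensity in arbitrary units.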

Sequence	binding signal
TCAAAATTTGATGGCAAAACAGGTAAATTCAAACGAATTTCGGAGTCACCTAGTGCAG	10500 fluorescence intensity (a.u.)
GATGATTTATATGATTGCAAGTGGTTAAATATATAATTATCGGAGTCACCTAGTGCAG	22400 fluorescence intensity (a.u.)
TCAATTAATTAATTAATTAACTACACTTTCACACGAGTCTCGGAGTCACCTAGTGCAG	52700 fluorescence intensity (a.u.)
ATTAAATTGCCTATGGGCTCACCGGCCAATAACAAACTCCCGGAGTCACCTAGTGCAG	17500 fluorescence intensity (a.u.)
GTAAAATTGATGTTACTAGATTTATCATTAATCAAACTATCGGAGTCACCTAGTGCAG	14700 fluorescence intensity (a.u.)
GATCTTAATTGGGCATGCTTTGGTTTTAATTAGTTGATCGCGGAGTCACCTAGTGCAG	35900 fluorescence intensity (a.u.)
GCCACAAATTTTGACAATTTAACCCTTTGTAAAGACTATTCGGAGTCACCTAGTGCAG	5990 fluorescence intensity (a.u.)
TCGAGGACATTAATTAGTGTCACTCTTATTGATATACTCTCGGAGTCACCTAGTGCAG	8800 fluorescence intensity (a.u.)
ACTAACATGTCACGTAATTTCAATAAGCAAGATAGTAATACGGAGTCACCTAGTGCAG	7520 fluorescence intensity (a.u.)
CATCACTAATCACTATATCATTGGGCTAGTTTAGGTTGATCGGAGTCACCTAGTGCAG	5170 fluorescence intensity (a.u.)
CCGCGATTACAATTAGCGCCGGATTAACCCTGCAATTAGCCGGAGTCACCTAGTGCAG	20500 fluorescence intensity (a.u.)
TCACAAAATAAACTAGATGAATGGAGCTAGGATTAGGCAGCGGAGTCACCTAGTGCAG	3440 fluorescence intensity (a.u.)
CACCATTGATATTGATTAACCGCACCAAAGTTGTCTTTATCGGAGTCACCTAGTGCAG	11000 fluorescence intensity (a.u.)
GTTCAATCTCATTTCAATTTTAGGATATCCGATCGATTGGCGGAGTCACCTAGTGCAG	10200 fluorescence intensity (a.u.)
ACTCTAATCACAAATATAAAAGAGGAAGCATGAGCCTAGTCGGAGTCACCTAGTGCAG	7240 fluorescence intensity (a.u.)
CAAAATTTAAATAAATTATCGGCTGTAGGCGGATAGGGAGCGGAGTCACCTAGTGCAG	34300 fluorescence intensity (a.u.)
ATGTAATGATGAATGATTTGAATGTCTTTGTTATGGATAACGGAGTCACCTAGTGCAG	18700 fluorescence intensity (a.u.)
CATTATTGATTGATTGATTCGCAGATTCGCCGCTGCCACCCGGAGTCACCTAGTGCAG	57200 fluorescence intensity (a.u.)
CACTATCAATCATCATCAGCTGATAAAATTATCGTTCTAACGGAGTCACCTAGTGCAG	13400 fluorescence intensity (a.u.)
ACCTCTTCTTCTCTTTGTCCCCTTCTCCATTTCCAAATTCCGGAGTCACCTAGTGCAG	6430 fluorescence intensity (a.u.)
CTCCACTAATCTAAAATTTGTTTAATGGATCATTGCATCACGGAGTCACCTAGTGCAG	16000 fluorescence intensity (a.u.)

Sequence	binding signal
GTTCTCATCATCATCAATCCCATATAAACTGGATTAAGGCCGGAGTCACCTAGTGCAG	13200 fluorescence intensity (a.u.)
ATTGAACTGACACATAGTAACAAATTACCTGTAGCAGTATCGGAGTCACCTAGTGCAG	3180 fluorescence intensity (a.u.)
ACTAAATTGATGTTATAGATGTTGTTATATTATTCCAGAACGGAGTCACCTAGTGCAG	26200 fluorescence intensity (a.u.)
GAAACATCAAATTAGTTCCATTAAATGTATTTTGATAACACGGAGTCACCTAGTGCAG	9680 fluorescence intensity (a.u.)
GCGAGGTAAATTTATTAAGCCTAATAAATCCGTCGCTAGCCGGAGTCACCTAGTGCAG	3780 fluorescence intensity (a.u.)
GCCATCTACTCATGTGATCACTCATTTATAATCTATATATCGGAGTCACCTAGTGCAG	3630 fluorescence intensity (a.u.)
GGCCTCTGATTGCGTTGCGCCTTTCGTCGTGCCACGGCGTCGGAGTCACCTAGTGCAG	30100 fluorescence intensity (a.u.)
ACCGTGTTGATAGAAATTTGTCATAGTCTCACATATTTTCCGGAGTCACCTAGTGCAG	10700 fluorescence intensity (a.u.)
GTGACTTCATTAATCTCCATGATGAATTTGCTGGCCCAATCGGAGTCACCTAGTGCAG	3210 fluorescence intensity (a.u.)
TGTAGATGATGATTTATTAAAATAAATAATCATAACACATCGGAGTCACCTAGTGCAG	29000 fluorescence intensity (a.u.)
ATTAATGACCTAATCTCCAACTAAACTCCCTATCAACTTCCGGAGTCACCTAGTGCAG	4830 fluorescence intensity (a.u.)
CATGATGCTTAATTTGCATAACGTTTTGCCCCTGGAGGGCCGGAGTCACCTAGTGCAG	13000 fluorescence intensity (a.u.)
GCCCAATCCGCCTGTCTCTCTCTCGTTCCCCTCCAATCCACGGAGTCACCTAGTGCAG	4180 fluorescence intensity (a.u.)
CATTTCAATCTTTCAGTGGATGAACAATCAACCAGCAGAGCGGAGTCACCTAGTGCAG	4640 fluorescence intensity (a.u.)
TAGAATGATGTGACTGAAAAGTTGAAAGTTTATGTGTGTACGGAGTCACCTAGTGCAG	5430 fluorescence intensity (a.u.)
CAAATATTTATGATTGAATAAAGTACCGTTGTACAAAATTCGGAGTCACCTAGTGCAG	11900 fluorescence intensity (a.u.)
TCTGAAATTTCAGTCTGTCTCCAATTTTAGATGACCGAAACGGAGTCACCTAGTGCAG	9160 fluorescence intensity (a.u.)
AACTCCTAACTTTCCATCACATCACATCACATACAAAACTCGGAGTCACCTAGTGCAG	4580 fluorescence intensity (a.u.)
ATTAATTGATTTTCTATTTCATATAGCTAATGTAACAGCTCGGAGTCACCTAGTGCAG	48800 fluorescence intensity (a.u.)
AATTACTACTACTAATTAGCTAGTAGCTAGTTTCTGTGCTCGGAGTCACCTAGTGCAG	8060 fluorescence intensity (a.u.)
GACAGTGACCCATCAATCAATGCACAAGCAGCAGTGACGTCGGAGTCACCTAGTGCAG	16900 fluorescence intensity (a.u.)

Sequence	binding signal
CATAATTTGCATACAAATAGAATTTCCATCGAGAAATCTTCGGAGTCACCTAGTGCAG	3440 fluorescence intensity (a.u.)
GCAATAATTACATATTTAACCTCATGCGAGCATACAACATCGGAGTCACCTAGTGCAG	16300 fluorescence intensity (a.u.)
GAAATAAGTAGTATTAATTGAAGTATGGATTAGTAGTGTTCGGAGTCACCTAGTGCAG	8510 fluorescence intensity (a.u.)
CAATAGATTGCGTCATCTCTGTTCATTAGCAGTAGTTTTGCGGAGTCACCTAGTGCAG	26100 fluorescence intensity (a.u.)
AGATGGGAATCATTATCAATCTATCATCCTAAATATAAACCGGAGTCACCTAGTGCAG	4070 fluorescence intensity (a.u.)
TCATGTGATATAATTTGCATTAAATTTGAGTATGGAATAGCGGAGTCACCTAGTGCAG	8690 fluorescence intensity (a.u.)
TTACACTGATTGATGCTCCACATGAACACCACATGCATTTCGGAGTCACCTAGTGCAG	32600 fluorescence intensity (a.u.)
GCTCCATATATATAAATTAAATCTATCCTATTTGGTGAGTCGGAGTCACCTAGTGCAG	3880 fluorescence intensity (a.u.)
AATCAATTTGATGATGATGACCGGAGGAAAAGAACGAAAACGGAGTCACCTAGTGCAG	13100 fluorescence intensity (a.u.)
AAATTAAATTATTTTGTAACGGAGTGAGTAACTTCTAGCTCGGAGTCACCTAGTGCAG	16400 fluorescence intensity (a.u.)
TCTTACTTCTAATTTAAAATTAATTTGCCATACCTGTTTTCGGAGTCACCTAGTGCAG	13500 fluorescence intensity (a.u.)
CCCATAACTGAATTGTTAATTTTGTCACGCGAGCAACGCACGGAGTCACCTAGTGCAG	48400 fluorescence intensity (a.u.)
AATAAATTTATTTAGCTGCCAATAAACAAAGGAAACTGGACGGAGTCACCTAGTGCAG	17700 fluorescence intensity (a.u.)
TTCCGGTTCCATATTAATTGATATTTTAGACAAGGCTAAGCGGAGTCACCTAGTGCAG	16700 fluorescence intensity (a.u.)
TAGTAAACAATAACATATAATTGACATCAAAATTATGATCCGGAGTCACCTAGTGCAG	9430 fluorescence intensity (a.u.)
TAATTTGATGGATTATTGTCACTGACATCATCACCAGCACCGGAGTCACCTAGTGCAG	25400 fluorescence intensity (a.u.)
TAATTAATTATCTTTTAAAATATTAATGTATCACGTTAATCGGAGTCACCTAGTGCAG	12000 fluorescence intensity (a.u.)
GTTCTTCAATTTCTTATCTTTCAATCCCCAAAATTTTCTTCGGAGTCACCTAGTGCAG	3560 fluorescence intensity (a.u.)
GCAGTAATGGAATGGATCACATTCGGTACTGTATTCGGGTCGGAGTCACCTAGTGCAG	3390 fluorescence intensity (a.u.)
AAAATTTTCATTCTGTTACATTGAATATTTAAACACATGCCGGAGTCACCTAGTGCAG	3390 fluorescence intensity (a.u.)
TTAGCTAATACTTAATTAATCACGCAGTAGTGGACCGCTTCGGAGTCACCTAGTGCAG	8570 fluorescence intensity (a.u.)

Sequence	binding signal
TCAGATAATTAAACACCCATATGTGTGTGTGCTATTTCTCCGGAGTCACCTAGTGCAG	6280 fluorescence intensity (a.u.)
CTCCTGTCATTTCATTAAAATTTCACTCTACCCATTCCACCGGAGTCACCTAGTGCAG	4610 fluorescence intensity (a.u.)
AATTATATTAATTATTTAGCCTCAACGAACATGGCACCTTCGGAGTCACCTAGTGCAG	11800 fluorescence intensity (a.u.)
AGTATTAATCATGTTTTATCATCTAACAACAATGAAAATACGGAGTCACCTAGTGCAG	5730 fluorescence intensity (a.u.)
GGGCATAATAATTATGAATTCGATTGAATTAAGAGGCTGTCGGAGTCACCTAGTGCAG	18200 fluorescence intensity (a.u.)
GTCAACACAATCAACCCTAATCAAGCCCATTCCCATTCACCGGAGTCACCTAGTGCAG	8120 fluorescence intensity (a.u.)
CCACTGACATAATGCAAAATAAGATATCATCGATGACATACGGAGTCACCTAGTGCAG	5570 fluorescence intensity (a.u.)
AGGGGATGATCGATTAGTTTACATTACCCTTTTGATCTCACGGAGTCACCTAGTGCAG	3510 fluorescence intensity (a.u.)
TGTGTCAATTACACATCCATCATTATCCATCCACCTTCCGCGGAGTCACCTAGTGCAG	28100 fluorescence intensity (a.u.)
TTTGAGTCTAATTATGTCATGATTTTGACAATGTGATGCTCGGAGTCACCTAGTGCAG	30100 fluorescence intensity (a.u.)
ACAATAACCAATCAATGAAATGAGAATGAACATCAGAAGCCGGAGTCACCTAGTGCAG	17900 fluorescence intensity (a.u.)
GGGGAAATTTTCACGAGGGAGAGGGAGGGGAGGGATATTTCGGAGTCACCTAGTGCAG	3860 fluorescence intensity (a.u.)
ATATGTACGATAATTATACGATTGCTAACAGATAGTGAATCGGAGTCACCTAGTGCAG	6930 fluorescence intensity (a.u.)
GGGGAGAGAGATTAATTAGGGAAGTACTCCACTCCCTCCACGGAGTCACCTAGTGCAG	5990 fluorescence intensity (a.u.)
AAGTTGTAAATATTGATGATTTATATAGCTTTGTTGTTGACGGAGTCACCTAGTGCAG	4630 fluorescence intensity (a.u.)
ATCCGGATTGAGGAGGACGTGAATTAAATTCGGTCCATAGCGGAGTCACCTAGTGCAG	3810 fluorescence intensity (a.u.)
TAGTCAATTTTATAGCTAATCTTATTATATACTATGTTGGCGGAGTCACCTAGTGCAG	3280 fluorescence intensity (a.u.)
TATCAAATTTATCCATTTGTTAATGTTGTAATAATTAAAACGGAGTCACCTAGTGCAG	6890 fluorescence intensity (a.u.)
ATTAACTGCAATTAGATGAGCATCTGAGGCAAGAAAGAAGCGGAGTCACCTAGTGCAG	25000 fluorescence intensity (a.u.)
ATCTTCAATCTTCAGTTCTGTAACCACTACACCAGCGATACGGAGTCACCTAGTGCAG	4770 fluorescence intensity (a.u.)
ATAAACACAATCAGATTACAGCTTCCCTGCTGTTTCGTTTCGGAGTCACCTAGTGCAG	5650 fluorescence intensity (a.u.)
